Measured values from the supplement of paper PMC10126150.
Values marked as one replicate rest on one cluster of the flow cell; about a third of the high ones do not repeat.

Test system: ATP
Assay: switch fluorescence ratio, 500 uM ATP over buffer (Cy3 cluster intensity, sum of 5 cycles each) (fold (ratio)); higher = stronger signal-on switching upon ATP binding; sequences stand for … in TCGTCGGCAGCGTCAGATGTGTATAAGAGACAGTTTTTTTTTTTTTTTTTTTTTTTTT…TC
Conditions: aptamer strand: ATP DNA aptamer (quencher-CACCTGGGGGAGTATTGCGGAGGAAGG + anchor), 100 nM annealed; ATP concentration: 500 uM; one replicate
Procedure, shortened: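 Clusters carrying Cy3-labelled switching strands on a modified Illumina MiSeq flow-cell were annealed to 100 nM quencher-labelled ATP aptamer and imaged in selection buffer. They were imaged again after 15 min with 500 uM ATP at 22 °C, over five buffer/ATP cycles with NaOH stripping and re-annealing in between. For each cluster, the fluorescence ratio is the summed Cy3 intensity of the target cycles divided by that of the buffer cycles, averaged per switch-domain sequence. Clusters outside 100-1000 RFU were left out.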
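Note: ATP exposure 15 min at 22 °C before imaging.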

Row | Sequence | switch fluorescence ratio
1 | TATATTATGG | 0.99
2 | GAGGGGCGCT | 1
3 | ACGGATCTGA | 1.03
4 | AGGCAGCT | 1.02
5 | ACCATGAGGT | 0.947
6 | AACGTACAAG | 1.41
7 | TGCGGGGTGA | 0.958
8 | CGCAAGGAAT | 1.08
9 | CAGCGCTAAT | 1.06
10 | CGGACAGCGT | 0.982
11 | GCTGAGAAGA | 0.973
12 | CTCATGCAGT | 1.6
13 | CGGCTTGCCC | 1.02
14 | GTGTCTGTAC | 1
15 | GCAAGACAAC | 1.67
16 | GTCTGTCAGT | 0.963
17 | GGATGGAGTA | 0.969
18 | CAGTTACTAG | 0.993
19 | GTTGAGGTTA | 0.968
20 | TACGAGATGG | 1.01
21 | GCTCCAAAAC | 1.46
22 | TCGGTTAACA | 0.946
23 | TTGGTGGAGC | 1.05

Row | Sequence | switch fluorescence ratio
24 | AAAGGGGCAG | 0.953
25 | ATGTTGACAC | 1.02
26 | CGATAGTCGC | 0.965
27 | CTGCATCGGG | 1.03
28 | GAAAGGTGGT | 1
29 | GTGGGGTGCA | 1.03
30 | TTCAGGAAAG | 0.987
31 | AGGTATATTT | 1.02
32 | TTAAGGTAGT | 0.978
33 | GGGTACTGAG | 1.14
34 | CCTAGAGAGC | 1
35 | GTCGTAGTTA | 0.995
36 | ACACATTTTG | 1.01
37 | TCATAACCAG | 0.977
38 | GGTTCGTCAT | 0.998
39 | TAGTTGCATG | 1.01
40 | TATTTCGCGC | 1.14
41 | CAGGACGTAT | 1.12
42 | GAGGAGGTGT | 0.985
43 | GTGTGGAGGC | 1.08
44 | GACATATGGA | 1.01
45 | TTTCGACCA | 1.02
46 | ACTAGCTTTT | 1.04

Row | Sequence | switch fluorescence ratio
47 | ATCGTTGGGC | 1.04
48 | TGATGGTTAA | 1.06
49 | GGTTCCGGAC | 1.06
50 | TGAAACGTCG | 0.979
51 | TGGCGCTATG | 1.01
52 | GCGCGCCTGG | 1
53 | AATAGCGCGT | 1.09
54 | ACGGGTGTGC | 0.997
55 | TAGTCCGTGG | 1.16
56 | GACCAGGCTA | 1.01
57 | TAGTTTTCCA | 0.977
58 | TGGATGTCAC | 1.06
59 | ACTGTTCTG | 0.981
60 | GAGGAATATA | 0.974
61 | TTAAGGATGA | 0.975
62 | AAGAGGGGA | 0.986
63 | GATCCCAAGT | 1.02
64 | GTGGCAGTGT | 0.956
65 | GGAACGAGCG | 1.02
66 | GTTCCTAGCA | 1.32
67 | GCGTTATGTA | 0.98
68 | TTCCGATTAA | 1.03
69 | CCTGACGGAA | 1.93

Row | Sequence | switch fluorescence ratio
70 | GAGGTGTGC | 0.999
71 | AATTCCGAAC | 1.19
72 | TGATACTGTA | 1.1
73 | AGGGTAAGAT | 0.952
74 | CTGCGTCGGG | 1.03
75 | TCAGGTGGTG | 1.04
76 | GTTATTTCAG | 0.991
77 | ACCGAAATTT | 1
78 | GGTTATAAGC | 0.976
79 | CGGATTGTAC | 1.13
80 | CACGAACGAC | 1.48
81 | AGAAGATTTT | 0.936
82 | CTATGTCGCT | 0.923
83 | TTGATCTGTA | 0.955
84 | GCGACGTGTC | 1.07
85 | TTGTCGAGGA | 1.1
86 | GATGCGTAG | 1.02
87 | AATGAAGGG | 1.03
88 | GATGGACGGC | 0.997
89 | CTAACTCTAA | 0.993
90 | TTTCCTATTA | 0.999
91 | TGGAGCCCCT | 0.964
92 | ATGATACATG | 1

Row | Sequence | switch fluorescence ratio
93 | TGGGCGGGCT | 0.984
94 | AAGATCTCCG | 1.03
95 | TATATAGTGC | 0.946
96 | CTTATGTCTT | 0.95
97 | TTTCGTTGGA | 1.02
98 | GCCTTTATCT | 0.945
99 | GGATCAAATC | 1.02
100 | AGAGGCTAGT | 1
101 | ATCGCAAGTC | 3.29
102 | GCGTTCAAAG | 0.99
103 | AACCTAGGAT | 0.969
104 | AGGAGCTAT | 1.08
105 | TACCCGTAGA | 1.06
106 | ATGACTTGG | 0.95
107 | CTGAGCCACT | 1.04
108 | TTAACCCTAA | 1.06
109 | AGTATGCGT | 1.01
110 | GGGGCTGGTC | 0.991
111 | GACGTTAACA | 1.11
112 | CTCAACCTTT | 1.04
113 | CCTTGGACCT | 1.24
114 | GGTGTCTTA | 1
115 | GAGGCCTGGT | 0.965

Row | Sequence | switch fluorescence ratio
116 | GGTCCCTATG | 0.988
117 | CAAGGGATGT | 1.02
118 | GTCTGATAGG | 1.03
119 | CAGTCGTTTC | 1
120 | CGACTGACGA | 1.35
121 | CGTTCGTTTT | 1.23
122 | AACGTTAGTA | 0.948
123 | CTCTACAGGC | 1.27
124 | GATCTAAGTT | 0.974
125 | AATTACGCCA | 1.25
126 | ATGTTATATA | 0.989
127 | TAAGGTTTT | 1.03
128 | AGCGGAGTGT | 0.99
129 | GGGGGGTGT | 1.05
130 | CGGTTCACAC | 1
131 | ATCAGCTACA | 0.998
132 | CAGGGGAACT | 0.992
133 | ACACGTCTCG | 1.02
134 | GGTTCCGGAT | 0.982
135 | CACAGGCCTG | 1.04
136 | CAAGTAGGTT | 1.2
137 | TGAGTGGCGC | 1.12
138 | ATAAGCCTC | 0.998

Row | Sequence | switch fluorescence ratio
139 | TGCTAAGCGG | 0.977
140 | GTTATTGGCT | 0.964
141 | TCTCCAAACG | 1.39
142 | GCTGTATTTG | 1.05
143 | CATACTTCTC | 1.02
144 | AACAACCGAT | 1.07
145 | CCGTAAAGAT | 1.15
146 | GACGGAAAA | 1.06
147 | TTTCCTTATC | 1.67
148 | CGTCAGGGTT | 1
149 | GGTAGACTAC | 1.01
150 | AAGCAACATG | 1.02
151 | CCACAATATG | 2.26
152 | TAAGATGCTG | 0.997
153 | ATTCCCATAG | 1.01
154 | TGCGATCACA | 1.04
155 | ATTAGTCGTT | 0.992
156 | GTTTTAATTG | 1.01
157 | ACTTTTTCCT | 1.03
